This is one part of the list. Many values rest on one well or one pass, so single values are uncertain.
test system: IST-MEL1; experiment: cell count relative to DMSO control; melanoma cells; higher = more viable cells; details: library dose: low library concentration; 72 h
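Note: cell number obtained by counting DAPI-stained nuclei in high-throughput microscope images with image analysis software, screen run in 1,536-well plates.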

| SMILES | cell count [%] |
| --- | --- |
| O=S(=O)(c1ccccc1)N(CC(F)(F)F)c1ccc(C(O)(C(F)(F)F)C(F)(F)F)cc1 + CC(C)CCN1c2nc(Nc3cc(F)c(O)c(F)c3)ncc2N(C)C(=O)C1C [BID1870] (first compound 1.4 µM, partner dose 0.2 µM) | 102 |
| N#Cc1c(O)c2c(-c3ccc(-c4ccccc4O)cc3)csc2[nH]c1=O + Oc1nc(-c2ccc(C(F)(F)F)cc2)nc2c1CSCC2 [XAV939] (first compound 2 µM, partner dose 2 µM) | 108 |
| N#Cc1c(O)c2c(-c3ccc(-c4ccccc4O)cc3)csc2[nH]c1=O + CCN(CC)CCCCNc1ncc2cc(-c3cc(OC)cc(OC)c3)c(NC(=O)NC(C)(C)C)nc2n1 [PD173074] (first compound 2 µM, partner dose 0.1 µM) | 95.9 |
| COc1ccc2c(c1)CCC1C2CCC2(C)C(NCCCCCCN3C(=O)C=CC3=O)CCC12 (stereo unspecified) + O=C1NC(=O)/C(=C/c2ccc(-c3ccc(F)cc3O)o2)S1 [AS252424] (first compound 0.4 µM, partner dose 1 µM) | 98 |
| COc1ccc(COc2ccc(Cc3cnc(N)nc3N)cc2OC)cc1 + Cn1cc(/C=C2\C(=O)Nc3cccnc32)c2ccccc21 [GW441756] (first compound 1 µM, partner dose 0.4 µM) | 103 |
| Oc1cc(-c2nc(-c3ccccc3)[nH]c2-c2ccncc2)ccc1Cl + CCCCCCCCCCCC1=C(O)C(=O)C=C(O)C1=O [Embelin] (first compound 0.2 µM, partner dose 1.2 µM) | 93.7 |
| O=C(O)C(=O)Nc1sc2c(c1C(=O)O)CCNC2 + Cn1cc(/C=C2\C(=O)Nc3cccnc32)c2ccccc21 [GW441756] (first compound 1.66667 µM, partner dose 0.4 µM) | 97.7 |
| O=C(O)C(=O)Nc1sc2c(c1C(=O)O)CCNC2 + CCCCCCCCCCCC1=C(O)C(=O)C=C(O)C1=O [Embelin] (first compound 1.66667 µM, partner dose 1.2 µM) | 110 |
| COc1ccc2c(c1)CCC1C2CCC2(C)C(NCCCCCCN3C(=O)C=CC3=O)CCC12 (stereo unspecified) + CCN(CC)CCCCNc1ncc2cc(-c3cc(OC)cc(OC)c3)c(NC(=O)NC(C)(C)C)nc2n1 [PD173074] (first compound 0.4 µM, partner dose 0.1 µM) | 101 |
| COC(=O)c1sccc1S(=O)(=O)Nc1ccc(Nc2ccccc2)cc1OC + COc1cc2ncnc(Nc3ccc(Oc4ccccc4)cc3)c2cc1OC [SrcI1] (first compound 1 µM, partner dose 2 µM) | 98.3 |
| CCN(CC)CCCCNc1ncc2cc(-c3cc(OC)cc(OC)c3)c(NC(=O)NC(C)(C)C)nc2n1 + COc1ccc(COc2ccc(Cc3cnc(N)nc3N)cc2OC)cc1 [GW2580] (first compound 0.1 µM, partner dose 1 µM) | 97.1 |
| COc1cc(N2CCC(N3CCN(C)CC3)CC2)ccc1Nc1ncc(Cl)c(Nc2ccccc2S(=O)(=O)C(C)C)n1 + CC(C)CCN1c2nc(Nc3cc(F)c(O)c(F)c3)ncc2N(C)C(=O)C1C [BID1870] (first compound 0.08 µM, partner dose 0.2 µM) | 106 |
| c1cc(-c2cnn3cc(-c4ccc(OCCN5CCCCC5)cc4)cnc23)ccn1 [Dorsomorphin] + Cn1cc(/C=C2\C(=O)Nc3cccnc32)c2ccccc21 [GW441756] (first compound 0.4 µM, partner dose 0.4 µM) | 98.9 |
| Cn1cc(/C=C2\C(=O)Nc3cccnc32)c2ccccc21 + CCCCCCCCCCCC1=C(O)C(=O)C=C(O)C1=O [Embelin] (first compound 0.4 µM, partner dose 1.2 µM) | 98.5 |
| Oc1nc(-c2ccc(C(F)(F)F)cc2)nc2c1CSCC2 + Cn1cc(/C=C2\C(=O)Nc3cccnc32)c2ccccc21 [GW441756] (first compound 2 µM, partner dose 0.4 µM) | 104 |
| COc1ccc(-c2ccc3c(N4CCOCC4)nc(N4C[C@@H](C)O[C@@H](C)C4)nc3n2)cc1CO + Cc1cc([N+](=O)[O-])ccc1NS(=O)(=O)c1cc(Cl)ccc1Cl [FH535] (first compound 0.02 µM, partner dose 1 µM) | 72.4 |

Source: the supplement of paper PMC4604168 (melanoma cell lines)
